# Measured values taken from PubChem BioAssay AID504832 (National Center for Advancing Translational Sciences (NCATS), 2011).
# “And” between values parts separate entries of the source, which are not always exact repeats. Equal entries are not always repeated. Among all 310,000 compounds or so, about 18,000 (5.8%) were called active. Inconclusive results, whose numbers are uncertain, are shown with a selection of clear calls. Calls follow the shape of the dose curve; as a rule, active = well fitted inhibition curve with a large enough effect; inconclusive = small, poorly fitted or top-dose-only effect, or another doubt; inactive = no such curve, though single readings can be large or run the other way. Potencies beside an inconclusive call are fits to weak or partial responses and may not hold up.
# Test: Primary qHTS for delayed death inhibitors of the malarial parasite plastid, 48 hour incubation
# Details: P. falciparum luciferase growth in erythrocytes; series mostly up to 28.7 µM; activity change, negative = inhibition: at the top concentration
# How it was run: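 Growth was read as firefly luciferase luminescence after a 48 h, 37 C, 5% CO2 exposure of compounds to reporter-bearing P. falciparum cultures (0.1% parasitemia, 2% hematocrit final) in Albumax-supplemented RPMI 1640.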
# % is scaled to controls: 0 for no effect and ±100 for the full control effect; potency is read from the fitted curve at half-maximal effect; tags tell the direction and shape of the fitted curve.
Structure (SMILES),"activity change, negative = inhibition",Potency
Cc1ccc(-c2ccc(CCC(=O)O)o2)cc1,inactive: -2.62%,–
COc1cc(OC)cc(N(C(=O)c2ccco2)C(C(=O)NC2CCCC2)c2ccc(N(C)C)cc2)c1 (stereo unspecified),–,active: 11.7 µM
Cc1ccccc1N1CCN(C2CCCN(C(=O)CCN3CCCCC3=O)C2)CC1 (stereo unspecified),inactive: 6.56%,–
O=C(NC1CCSc2ccccc21)c1cc([N+](=O)[O-])ccc1N1CCOCC1 (stereo unspecified),–,"inconclusive: 20.8 µM [inhibitor, partial curve, poor fit]"
Fc1ccc(-c2csc3ncnc(N4CCN(Cc5ccccc5)CC4)c23)cc1,–,"inconclusive: 0.0657 µM [inhibitor, full curve, poor fit]"
Cc1cc(C)c(NC(=S)NCC2CCN(C(C)c3ccccc3)C2)c(C)c1 (stereo unspecified),–,"inconclusive: 8.28 µM [inhibitor, partial curve]"
Cc1ccc(OCCn2c(=S)[nH]c3ccccc32)c(C(C)C)c1,–,active: 11.7 µM
CNC(=O)c1ccsc1NC(=O)C1CCN(S(=O)(=O)c2ccc(Cl)s2)CC1,–,"inconclusive: 18.5 µM [inhibitor, single point]"
O=C1/C(=C/c2ccccc2)SC(=S)N1C1CCS(=O)(=O)C1 (stereo unspecified),–,"inconclusive: 13.1 µM [inhibitor, single point]"
COc1ccc(CC(=O)Nc2c(C(=O)N3CCN(c4ncccn4)CC3)oc3ccccc23)cc1OC,–,"inconclusive: 11.7 µM [inhibitor, single point]"
Cn1c(=O)c2c(SCc3ccccn3)nc(C3CC3)nc2n(C)c1=O,inactive: 26%,–
CC1=CC(C)(C)Nc2ccc(C)cc21,–,"inconclusive: 18.5 µM [inhibitor, single point]"
CC1(C)Cc2c(C#N)c(SCc3nc4ccccc4[nH]3)nc(N3CCOCC3)c2CO1,–,"inconclusive: 0.037 µM [inhibitor, full curve, poor fit]"
COc1ccc(NC(=S)N(Cc2ccccn2)Cc2ccccc2Cl)cc1,–,"inconclusive: 14.7 µM [inhibitor, single point]"
COc1ccc(C(=O)N/N=C/c2ccc3cccc(OCc4ccccc4)c3n2)cc1,–,"inconclusive: 11.7 µM [inhibitor, single point]"
S=C(c1ccc(N2CCCC2)cc1)N1CCCCC1,inactive: -75.7%,–
COc1cc(OC)cc(C(=O)NCCC(c2ccccc2)c2ccccc2)c1,–,"inconclusive: 5.22 µM [inhibitor, partial curve, poor fit]"
COc1ccc(CCNC(=O)c2ccc(S(=O)(=O)N(C)c3ccccc3)cc2)cc1OC,–,"inconclusive: 11.7 µM [inhibitor, single point]"
CN1CCC(N(C)S(=O)(=O)c2ccc(NC(=O)Cc3ccc(F)cc3)cc2)CC1,inactive: -3.82%,–
CNCCCC1c2ccccc2C=Cc2ccccc21,–,"inconclusive: 6.42 µM [inhibitor, single point] and inconclusive: 14.7 µM [inhibitor, single point]"
O=C(CSc1ccc2nnc(CCNC(=O)c3ccccc3)n2n1)NCc1ccccc1,inactive: -29.2%,–
COc1ccccc1N1CCN(C(=O)/C=C/c2c(Cl)nc3ccccn23)CC1,–,"inconclusive: 10.4 µM [inhibitor, partial curve]"

Structure (SMILES),"activity change, negative = inhibition",Potency
CCOc1nc(NCCO)nc(Nc2cc(Cl)ccc2OC)n1,–,"inconclusive: 14.7 µM [inhibitor, partial curve]"
COc1ccccc1C(=O)N1CCN(CCNC(=O)C(=O)Nc2ccc(Br)c(C)c2)CC1,–,"inconclusive: 18.5 µM [inhibitor, single point]"
CCCN(CC(=O)Nc1cc(Cl)cc(Cl)c1)CC(=O)Nc1ccc(F)c(F)c1F,–,"inconclusive: 13.1 µM [inhibitor, single point]"
CC1(C)CC(=O)C=C(NC2CCCCC2)C1,–,"inconclusive: 18.5 µM [inhibitor, single point]"
CC(C)CNC(=O)CC(=O)N/N=C/c1ccc(F)cc1,inactive: 3.04%,–
CCOC(=O)c1c(NC(=O)Nc2ccc(C)cc2)sc2c1CCN(C)C2,–,active: 11.7 µM
C=CCN(C(=O)c1cc(C)cc(C)c1)C1(C(=O)Nc2ccccc2)CCN(C(C)C)CC1,–,"inconclusive: 0.37 µM [inhibitor, full curve]"
C=C(C)c1cccc(C(C)(C)NC(=O)Nc2ncccn2)c1,–,"inconclusive: 18.5 µM [inhibitor, single point]"
O=C(NNC(=O)C1CCN(C(=O)Nc2ccccc2)CC1)c1ccc([N+](=O)[O-])cc1,inactive: -5.81%,–
CC(NC(=O)c1cccc(N(C)C)c1)c1ccc(-n2ccnc2)cc1 (stereo unspecified),–,"inconclusive: 18.5 µM [inhibitor, single point]"
COc1cccc(C=NCCCN=Cc2cccc(OC)c2O)c1O,–,"inconclusive: 18.5 µM [inhibitor, partial curve, poor fit]"
Cc1cccn2c(=O)c3cc(C(=O)NC4CCCCC4)c(=N)n(CCN4CCOCC4)c3nc12,–,"inconclusive: 2.62 µM [inhibitor, full curve]"
CCOC(=O)C1CCN(c2ncnc3c2cnn3-c2ccccc2)CC1,inactive: 26.3%,–
CC1(C)C2CC=C(/C=N/NC(=S)Nc3cccnc3)C1C2 (stereo unspecified),–,"inconclusive: 18.5 µM [inhibitor, single point]"
CCc1ccc2[nH]c3nc(C)cc(C)c3c(=O)c2c1,–,active: 3.29 µM
CCN(CC)C(=O)COc1cc(C)c(Cl)c(C)c1,–,"inconclusive: 18.5 µM [inhibitor, single point]"
COc1ccc(C(C)(C)C)cc1NC(=O)c1ccoc1C,–,active: 11.7 µM
O=C1C=C(c2cc(Cl)cc(Cl)c2)C[C@@H](c2ccc(F)cc2)C1,–,"inconclusive: 14.7 µM [inhibitor, partial curve, poor fit]"
CCc1cc2c(=O)c(-c3nc4ccccc4n3C)c(C)oc2c(CN(CC)CC)c1O,inactive: -18.9%,–
COc1cc(C(=O)NC2Cc3ccccc3C2)ccc1OC1CCN(C(C)=O)CC1,–,"inconclusive: 1.04 µM [inhibitor, full curve]"
O=C1Cc2cc(S(=O)(=O)Nc3cccc([N+](=O)[O-])c3)cc3c2N1CCC3,inactive: -15.7%,–
CC[N+]1(C)CCC(=C2c3ccccc3CC(=O)c3sccc32)CC1 (stereo unspecified),–,"inconclusive: 4.65 µM [inhibitor, partial curve]"

Structure (SMILES),"activity change, negative = inhibition",Potency
COc1ccc(NS(=O)(=O)c2ccc(OC)c(NC(=O)CNC(=O)c3ccc(OC)cc3)c2)cc1,–,"inconclusive: 8.28 µM [inhibitor, single point]"
O=C(OCn1nnc2ccccc2c1=O)c1cc(-c2ccccc2)nc2ccccc12,inactive: 11.4%,–
Cc1nc2ccccc2c(=O)n1CCc1ccccc1,–,"inconclusive: 10.4 µM [inhibitor, single point]"
Cc1ccc(S(=O)(=O)/N=C(/Nc2cccc3ccccc23)c2ccc(F)cc2)cc1,inactive: 19.3%,–
COc1ccc(OC)c(C(=O)c2oc3ccccc3c2NC(C)=O)c1,–,"inconclusive: 7.38 µM [inhibitor, partial curve, poor fit]"
COc1ccc(NS(=O)(=O)c2ccc(C)c(C(=O)N(C)Cc3ccc(C)cc3)c2)cc1,–,"inconclusive: 13.1 µM [inhibitor, single point]"
Cc1nc2ccccc2nc1N/N=C/c1ccc(O)cc1O,–,"inconclusive: 7.38 µM [inhibitor, partial curve, poor fit]"
Cc1ccccc1/C=N\NC(=O)c1ccccc1-n1cccc1,inactive: 27.9%,–
CCC(=Nc1ccc(OC)cc1OC)c1c(O)[nH]c(=O)[nH]c1=O,–,"inconclusive: 16.5 µM [inhibitor, single point]"
CCCCN1C2CCCC1CC(NC(=O)c1cccc(OC)c1)C2 (stereo unspecified),–,"inconclusive: 11.7 µM [inhibitor, partial curve, poor fit]"
CCNC(=S)N(C)CCc1cc2c(c(OC)c1C=C1C(=O)N(C)C(=O)N(C)C1=O)OCO2,–,"inconclusive: 11.7 µM [inhibitor, single point]"
COc1ccc(N2CCN(C(=O)CN3CCN(c4nc(-c5ccc(F)cc5)cs4)CC3)CC2)cc1,–,"inconclusive: 11.7 µM [inhibitor, partial curve]"
COc1ccc(Nc2nc(N3CCOCC3)nc(N3CCOCC3)n2)c(OC)c1,–,"inconclusive: 0.117 µM [inhibitor, full curve, poor fit]"
CC(=O)Nc1cccc(NC(=O)CSc2nc(C3CC3)nc3ccccc23)c1,–,"inconclusive: 18.5 µM [inhibitor, single point]"
Cc1cccc(OCc2n(CC(=O)OC3CC(C)CCC3C(C)C)c3ccccc3[n+]2C)c1 (stereo unspecified),–,active: 2.33 µM
CCOC(=O)c1ccc(NC(=O)Nc2ccc3c4c(cccc24)C(=O)N3CC)cc1,–,"inconclusive: 0.37 µM [inhibitor, partial curve]"
COc1cccc(C(c2sc3ncnn3c2O)N2CCc3ccccc3C2)c1 (stereo unspecified),–,"inconclusive: 10.4 µM [inhibitor, partial curve, poor fit]"
Cc1cc(C)nc(-n2nc(C)cc2NC(=O)CN2CCc3ccccc3C2)n1,–,active: 4.15 µM
COc1ccc(OC)c(-c2csc(NC(=O)Cn3[nH]c(=O)c4ccccc4c3=O)n2)c1,–,"inconclusive: 18.5 µM [inhibitor, single point]"
Cc1c(OCC(=O)N(C)c2ccccc2)ccc2c3c(c(=O)oc12)CCC3,–,"inconclusive: 1.31 µM [inhibitor, partial curve, poor fit]"
O=C(Nc1nc2c(s1)CCCC2)c1ccc(S(=O)(=O)N2CCCc3ccccc32)cc1,–,"inconclusive: 13.1 µM [inhibitor, partial curve]"
COc1ccc(OCC(=O)N2CCN(c3nnc(-c4ccccc4)c4ccccc34)CC2)cc1,–,"inconclusive: 10.4 µM [inhibitor, partial curve]"
